One experiment deals with T1, mouse PCSK9 (mouse, UniProt Q80W65 35-694, limits assumed).
T1 construct: biotinylated in the assays; also called mPCSK9
Kind of experiment: binding ELISA, biotinylated PCSK9 on Neutravidin plate. In general terms: In an ELISA, binding on a coated surface is turned into a signal by an enzyme label.

Experiment [1] concerns the target T2, gain of function hPCSK9_D374Y mutant (human, UniProt Q8NBP7 31-152; Q8NBP7 153-692).
T2 construct: also called human PCSK9_D374Y; not shown: FLAG tag
Kind of experiment: competition ELISA on LDL-R-coated plate.

The target of experiment [2] is T3, human PCSK9 (SEQ ID NO: 34) containing a C-terminal FLAG tag (human, UniProt Q8NBP7 31-152; Q8NBP7 153-692).
T3 construct: Secreted from HEK293F cells; also called hPCSK9; hPCSK9 wt; not shown: C-terminal FLAG tag
Kind of experiment: competition ELISA on LDL-R-coated plate.

Experiment [3] has as its target T3, human PCSK9 (SEQ ID NO: 34) containing …. The experiment is described as follows: cell free TR-FRET, 20 nM biotin-hPCSK9 and Eu-LDLR, with 34 mg/ml HSA.
For experiment [4] the target is unchanged. The experiment is described as follows: SPR (Biacore T200), biotinylated PCSK9 captured, 1:1 Langmuir model. Background: SPR reads the build-up and loss of mass on a sensor chip optically.
Experiment [5] shares this target. Kind of experiment: cell free TR-FRET, 20 nM biotin-hPCSK9 and Eu-LDLR, without HSA.
The target is the same in experiment [6]. The experiment is described as follows: SPR (Biacore T200), biotinylated human PCSK9 captured, 1:1 model.
Another experiment has as its target T4, human serum albumin (human, UniProt P02768 25-609).
T4 construct: also called HSA
The experiment is described as follows: SPR (Biacore_Anti HSA); set-up not described.

Sequence of mouse PCSK9 (Q80W65 35-694 limits assumed): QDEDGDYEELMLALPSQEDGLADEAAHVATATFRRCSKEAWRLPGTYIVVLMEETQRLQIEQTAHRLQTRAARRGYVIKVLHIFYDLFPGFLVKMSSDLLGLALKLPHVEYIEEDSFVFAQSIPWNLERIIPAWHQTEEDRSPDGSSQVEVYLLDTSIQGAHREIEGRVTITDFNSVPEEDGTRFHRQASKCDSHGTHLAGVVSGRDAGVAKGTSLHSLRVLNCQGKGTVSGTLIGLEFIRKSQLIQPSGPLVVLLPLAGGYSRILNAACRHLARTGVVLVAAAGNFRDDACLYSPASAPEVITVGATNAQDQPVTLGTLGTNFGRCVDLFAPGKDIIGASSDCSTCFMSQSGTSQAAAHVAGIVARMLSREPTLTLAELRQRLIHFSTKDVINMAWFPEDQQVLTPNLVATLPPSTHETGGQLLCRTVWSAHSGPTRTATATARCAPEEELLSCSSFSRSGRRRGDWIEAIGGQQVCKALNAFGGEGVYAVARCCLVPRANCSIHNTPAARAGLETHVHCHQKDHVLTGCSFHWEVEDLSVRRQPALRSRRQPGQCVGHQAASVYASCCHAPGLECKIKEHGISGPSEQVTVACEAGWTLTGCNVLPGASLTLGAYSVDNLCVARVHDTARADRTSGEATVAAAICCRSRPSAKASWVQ

B1: negative control SEQ ID NO: 2 (designed binder)
chain: ASDEEIQDVSGTWYLKAMTVDREFPEMNLESVTPMTLTTLEGGNLEAKVTMLISGRSQEVKAVLEKTDEPGKYTADGGKHVAYIIRSHVKDHYIFYSEGELHGKPVPGVWLVGRDPKNNLEALEDFEKAAGARGLSTESILIPRQSETSSPGSAWSHPQFEK
Take B1: the binding result with mouse PCSK9 is “no binding (tested: 100 nM)”; in experiment [1], “no binding (tested: starting concentration of 300 nM)”; in experiment [2] it was “no binding (tested: starting concentration of 300 nM)”.

B2: lipocalin mutein SEQ ID NO: 62 (designed binder)
chain: ASDEEIQDVSGTWYLKAMTVDRFKIASWPRSVTPMTLTTLEGGNLEAKVTMNWWGRSQEVKAVLERTDEPGKYTAQGDRHVAYIIRSPVKDHYIFYSEGNLQGETVPGVWLVGRDPKNNLEALEDFEKAAGARGLSTESILIPRQSETSSPGSAWSHPQFEK
Broadly, the IC50 is the concentration needed to halve the response being measured. Read a low IC50 as higher potency. What is called Kd is the constant that tells how readily two partners part at equilibrium. A lower Kd goes with tighter binding. One may read the koff as the rate constant with which the complex falls apart. Lower therefore signals slow dissociation. The kon is a measure of how fast the partners come together. B2 registered an IC50 in experiment [3] of 930 pM. In experiment [4], this molecule registered a dissociation constant (Kd) of 260 pM, a koff of 0.00029 s⁻¹ and a kon of 1.1e+06 M⁻¹ s⁻¹. The same molecule yielded an IC50 in experiment [5] of 1360 pM. In experiment [6], this molecule gave a dissociation constant (Kd) of 330 pM, an off-rate constant (koff) of 0.000165 s⁻¹ and an on-rate constant (kon) of 498000 M⁻¹ s⁻¹.

B3: lipocalin mutein SEQ ID NO: 82 (designed binder)
chain: GASDEEIQDVSGTWYLKAMTVDRFKIASWPRSVTPMTLTTLEGGNLEAKVTMNWWGRSQEVKAVLERTDEPGKYTAQGDRHVAYIIRSHVKDHYIFYSEGNLQGETVPGVWLVGRDPKNNLEALEDFEKAAGARGLSTESILIPRQSETSSPG
Molecule B3 showed a 50% inhibitory concentration (IC50) in experiment [3] of 1330 pM. In experiment [4], this molecule yielded a Kd of 250 pM, a koff of 0.00037 s⁻¹ and a kon of 1.5e+06 M⁻¹ s⁻¹. Further, the half-inhibitory concentration (IC50) in experiment [5] worked out at 1680 pM.

B4: lipocalin mutein SEQ ID NO: 83 (conjugated to an albumin binding protein) (designed binder)
chain: ASDEEIQDVSGTWYLKAMTVDRFKIASWPRSVTPMTLTTLEGGNLEAKVTMNWWGRSQEVKAVLERTDEPGKYTAQGDRHVAYIIRSPVKDHYIFYSEGNLQGETVPGVWLVGRDPKNNLEALEDFEKAAGARGLSTESILIPRQSETSSPGGGGSLAEAKEAANAELDSYGVSDFYKRLIDKAKTVEGVEALKDAILAALPG
As for B4, the 50% inhibitory concentration (IC50) in experiment [3] stood at 1260 pM. Further, in the experiment with human serum albumin, the equilibrium dissociation constant (Kd) worked out at 19 pM, the koff is 4.2e-05 s⁻¹ and the kon was 2.2e+06 M⁻¹ s⁻¹. In experiment [4], this molecule displayed a dissociation constant Kd of 380 pM, a dissociation rate constant (koff) of 0.00027 s⁻¹ and an on-rate constant (kon) of 710000 M⁻¹ s⁻¹. In experiment [5], this molecule displayed a 50% inhibitory concentration (IC50) of 1930 pM.

B5: lipocalin mutein SEQ ID NO: 84 (conjugated to an albumin binding protein) (designed binder)
chain: GASDEEIQDVSGTWYLKAMTVDRFKIASWPRSVTPMTLTTLEGGNLEAKVTMNWWGRSQEVKAVLERTDEPGKYTAQGDRHVAYIIRSHVKDHYIFYSEGNLQGETVPGVWLVGRDPKNNLEALEDFEKAAGARGLSTESILIPRQSETSSPGKLGGGGSLAEAKEAANAELDSYGVSDFYKRLIDKAKTVEGVEALKDAILAALPGKLN
In the case of B5, the IC50 in experiment [3] and in experiment [5] was 1090 pM in each case. Also, the results for the Kd (with human serum albumin; in experiment [4]) were 13 pM and 390 pM, respectively. Moreover, the dissociation rate constant (koff) with human serum albumin is 3e-05 s⁻¹; in experiment [4] it was 0.0003 s⁻¹. The on-rate (kon) came out at 2.4e+06 M⁻¹ s⁻¹ with human serum albumin and 750000 M⁻¹ s⁻¹ in experiment [4].

The values are drawn from patent US20170173112A1 (Daiichi Sankyo, published 2017).
